# Results as given in the supplement of paper PMC8728848.
# The other results are listed elsewhere or left out.
# B1: PX9961C-bth-497-22-497 (Bacteroides thetaiotaomicron) (protein)
# chain: DWLDLNTTSSVETGQAIVTLDDAQIALNGIYRLASGHSYYGDNYWYYGDCRAADVQARITKGDGKRVSPYYEYNVLASDNLNIVLPWNTVYKVIRQTNNLIQKIESGSIQSSDTKELNRIKSEALVMRGLSLFNLTRLFGMPYTNDKGASLGVPIETSPSDPTHKPSRSTVAQCYEQVVSDMSNALSGLRQETSNGYINYWAAQALLSRVYLNMGEYQKAYDAATDVIKNNGGRYQLYSYEEYPNVWGQDFQSESLFELYITLSEPSGGTGGEGAPMVYANEATVDWNNLILSEDFLNLLNEDPKDVRHCLTKESVIENNTGLPAAAMHEKVYLAKFPGKTGDDPKTNNICIIRLSEVYLNAAEAGLKKGTDIEEAQGYLNDIISRRTTDTSQQVSTETFTLDRILKERRKELVGEGEVFYDYLRNGLAIERKGSWHLETLKASNAQKIEATDLRIALPIPQSEIDANPNIQQNPR
# Tests used:
# Assay in all cases: glycan array binding signal (z-score within array); higher = stronger binding
# Conditions in all cases: glycan notation: IUPAC condensed, linker removed
# Fuc(a1-2)Gal = biological target: Fuc(a1-2)Gal
# Method in brief: (§1)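 The binding signal is a Z-score computed within each array. Data were drawn from 3228 arrays in the Consortium for Functional Glycomics database, restricted to those with a known protein sequence. Scores were averaged over arrays of the same protein sequence at different concentrations or buffers, and over linkers, and negative values can be taken as non-binding.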
# Fuc(a1-2)Gal(b1-3)GalNAc = biological target: Fuc(a1-2)Gal(b1-3)GalNAc
# Method in brief: as §1
# [1] = biological target: Fuc(a1-2)Gal(b1-3)GalNAc(a1-3)[Fuc(a1-2)]Gal(b1-4)Glc
# Method in brief: as §1
# [2] = biological target: Fuc(a1-2)Gal(b1-3)GalNAc(a1-3)[Fuc(a1-2)]Gal(b1-4)GlcNAc
# Method in brief: as §1
# [3] = biological target: Fuc(a1-2)Gal(b1-3)GalNAc(b1-3)Gal
# Method in brief: as §1
# [4] = biological target: Fuc(a1-2)Gal(b1-3)GalNAc(b1-3)Gal(a1-4)Gal(b1-4)Glc
# Method in brief: as §1
# [5] = biological target: Fuc(a1-2)Gal(b1-3)GalNAc(b1-4)[Neu5Ac(a2-3)]Gal(b1-4)Glc
# Method in brief: as §1
# Fuc(a1-2)Gal(b1-3)GlcNAc = biological target: Fuc(a1-2)Gal(b1-3)GlcNAc
# Method in brief: as §1
# [6] = biological target: Fuc(a1-2)Gal(b1-3)GlcNAc(b1-2)Man(a1-3)[Fuc(a1-2)Gal(b1-3)GlcNAc(b1-2)Man(a1-6)]Man(b1-4)GlcNAc(b1-4)GlcNAc
# Method in brief: as §1
# [7] = biological target: Fuc(a1-2)Gal(b1-3)GlcNAc(b1-2)Man(a1-3)[Fuc(a1-2)Gal(b1-3)GlcNAc(b1-2)Man(a1-6)]Man(b1-4)GlcNAc(b1-4)[Fuc(a1-6)]GlcNAc
# Method in brief: as §1
# [8] = biological target: Fuc(a1-2)Gal(b1-3)GlcNAc(b1-3)Gal(b1-4)Glc
# Method in brief: as §1
# [9] = biological target: Fuc(a1-2)Gal(b1-3)GlcNAc(b1-3)GalNAc
# Method in brief: as §1
# [10] = biological target: Fuc(a1-2)Gal(b1-3)GlcNAc(b1-3)[Fuc(a1-2)Gal(b1-3)GlcNAc(b1-6)]GalNAc
# Method in brief: as §1
# [11] = biological target: Fuc(a1-2)Gal(b1-3)GlcNAc(b1-3)[Gal(b1-4)GlcNAc(b1-6)]Gal(b1-4)Glc
# Method in brief: as §1
# [12] = biological target: Fuc(a1-2)Gal(b1-3)GlcNAc(b1-3)[Neu5Ac(a2-6)Gal(b1-4)GlcNAc(b1-6)]Gal(b1-4)Glc
# Method in brief: as §1
# [13] = biological target: Fuc(a1-2)Gal(b1-3)GlcNAc6S
# Method in brief: as §1
# [14] = biological target: Fuc(a1-2)Gal(b1-3)[Fuc(a1-4)]GlcNAc
# Method in brief: as §1
# [15] = biological target: Fuc(a1-2)Gal(b1-3)[Fuc(a1-4)]GlcNAc(b1-2)Man(a1-3)[Fuc(a1-2)Gal(b1-3)[Fuc(a1-4)]GlcNAc(b1-2)Man(a1-3)]Man(b1-4)GlcNAc(b1-4)GlcNAc
# Method in brief: as §1
# [16] = biological target: Fuc(a1-2)Gal(b1-3)[Fuc(a1-4)]GlcNAc(b1-2)Man(a1-3)[Fuc(a1-2)Gal(b1-3)[Fuc(a1-4)]GlcNAc(b1-2)Man(a1-6)]Man(b1-4)GlcNAc(b1-4)[Fuc(a1-6)]GlcNAc(b1-4)[Fuc(a1-6)]GlcNAc
# Method in brief: as §1
# [17] = biological target: Fuc(a1-2)Gal(b1-3)[Fuc(a1-4)]GlcNAc(b1-3)[Fuc(a1-3)[Gal(b1-4)]GlcNAc(b1-6)]Gal(b1-4)Glc
# Method in brief: as §1
# [18] = biological target: Fuc(a1-2)Gal(b1-3)[Fuc(a1-4)]GlcNAc(b1-3)[Gal(b1-4)GlcNAc(b1-6)]Gal(b1-4)Glc
# Method in brief: as §1
# Fuc(a1-2)Gal(b1-4)Glc = biological target: Fuc(a1-2)Gal(b1-4)Glc
# Method in brief: as §1
# Fuc(a1-2)Gal(b1-4)Glc6S = biological target: Fuc(a1-2)Gal(b1-4)Glc6S
# Method in brief: as §1
# Fuc(a1-2)Gal(b1-4)GlcNAc = biological target: Fuc(a1-2)Gal(b1-4)GlcNAc
# Method in brief: as §1
# [19] = biological target: Fuc(a1-2)Gal(b1-4)GlcNAc(b1-2)Man
# Method in brief: as §1
# [20] = biological target: Fuc(a1-2)Gal(b1-4)GlcNAc(b1-2)Man(a1-3)[Fuc(a1-2)Gal(b1-4)GlcNAc(b1-2)Man(a1-6)]Man(b1-4)GlcNAc(b1-4)GlcNAc
# Method in brief: as §1
# [21] = biological target: Fuc(a1-2)Gal(b1-4)GlcNAc(b1-2)Man(a1-3)[Fuc(a1-2)Gal(b1-4)GlcNAc(b1-2)Man(a1-6)]Man(b1-4)GlcNAc(b1-4)[Fuc(a1-6)]GlcNAc
# Method in brief: as §1
# [22] = biological target: Fuc(a1-2)Gal(b1-4)GlcNAc(b1-2)[Fuc(a1-2)Gal(b1-4)GlcNAc(b1-4)]Man(a1-3)[Fuc(a1-2)Gal(b1-4)GlcNAc(b1-2)Man(a1-6)]Man(b1-4)GlcNAc(b1-4)GlcNAc
# Method in brief: as §1
# [23] = biological target: Fuc(a1-2)Gal(b1-4)GlcNAc(b1-3)Gal(b1-4)GlcNAc
# Method in brief: as §1
# [24] = biological target: Fuc(a1-2)Gal(b1-4)GlcNAc(b1-3)Gal(b1-4)GlcNAc(b1-2)Man(a1-3)[Fuc(a1-2)Gal(b1-4)GlcNAc(b1-3)Gal(b1-4)GlcNAc(b1-2)Man(a1-6)]Man(b1-4)GlcNAc(b1-4)GlcNAc
# Method in brief: as §1
# [25] = biological target: Fuc(a1-2)Gal(b1-4)GlcNAc(b1-3)Gal(b1-4)GlcNAc(b1-3)Gal(b1-4)GlcNAc
# Method in brief: as §1
# [26] = biological target: Fuc(a1-2)Gal(b1-4)GlcNAc(b1-3)GalNAc
# Method in brief: as §1
# [27] = biological target: Fuc(a1-2)Gal(b1-4)GlcNAc(b1-3)[Fuc(a1-2)Gal(b1-4)GlcNAc(b1-6)]GalNAc
# Method in brief: as §1
# [28] = biological target: Fuc(a1-2)Gal(b1-4)GlcNAc(b1-3)[Fuc(a1-3)[Gal(b1-4)]GlcNAc(b1-6)]Gal(b1-4)Glc
# Method in brief: as §1
# [29] = biological target: Fuc(a1-2)Gal(b1-4)GlcNAc(b1-6)GalNAc
# Method in brief: as §1
# [30] = biological target: Fuc(a1-2)Gal(b1-4)GlcNAc6S
# Method in brief: as §1
# [31] = biological target: Fuc(a1-2)Gal(b1-4)[Fuc(a1-3)]GlcNAc
# Method in brief: as §1
binder,measurement,setting,value
B1,glycan array binding signal (z-score),Fuc(a1-2)Gal,-0.453
same,glycan array binding signal (z-score),Fuc(a1-2)Gal(b1-3)GalNAc,-0.104
same,glycan array binding signal (z-score),[1],-0.365
same,glycan array binding signal (z-score),[2],-0.6
same,glycan array binding signal (z-score),[3],-0.484
same,glycan array binding signal (z-score),[4],-0.381
same,glycan array binding signal (z-score),[5],-0.144
same,glycan array binding signal (z-score),Fuc(a1-2)Gal(b1-3)GlcNAc,-0.242
same,glycan array binding signal (z-score),[6],0.463
same,glycan array binding signal (z-score),[7],-0.338
same,glycan array binding signal (z-score),[8],-0.187
same,glycan array binding signal (z-score),[9],-0.626
same,glycan array binding signal (z-score),[10],0.12
same,glycan array binding signal (z-score),[11],0.471
same,glycan array binding signal (z-score),[12],0.349
same,glycan array binding signal (z-score),[13],0.54
same,glycan array binding signal (z-score),[14],-0.262
same,glycan array binding signal (z-score),[15],-0.188
same,glycan array binding signal (z-score),[16],-0.062
same,glycan array binding signal (z-score),[17],-0.014
same,glycan array binding signal (z-score),[18],-0.24
same,glycan array binding signal (z-score),Fuc(a1-2)Gal(b1-4)Glc,-0.121
same,glycan array binding signal (z-score),Fuc(a1-2)Gal(b1-4)Glc6S,0.149
same,glycan array binding signal (z-score),Fuc(a1-2)Gal(b1-4)GlcNAc,0.122
same,glycan array binding signal (z-score),[19],-0.387
same,glycan array binding signal (z-score),[20],0.822
same,glycan array binding signal (z-score),[21],1.12
same,glycan array binding signal (z-score),[22],0.653
same,glycan array binding signal (z-score),[23],-0.376
same,glycan array binding signal (z-score),[24],0.339
same,glycan array binding signal (z-score),[25],0.701
same,glycan array binding signal (z-score),[26],-0.507
same,glycan array binding signal (z-score),[27],-0.579
same,glycan array binding signal (z-score),[28],-0.336
same,glycan array binding signal (z-score),[29],0.148
same,glycan array binding signal (z-score),[30],0.326
same,glycan array binding signal (z-score),[31],-0.222
